Values after ≈ are worked out from the molar mass of the structure shown. Like-named read-outs stand apart in the source and are kept apart here.
Columns and labels:
[1] = ambient temperature

`CCC[C@H](N[C@H]1CCc2cc(F)cc(F)c2C1)C(=O)Nc1cn(C(C)(C)CNCC(C)(C)C)cn1` gave a solubility (physchem; acetone) of under 1000 µg/mL, a solubility (physchem; acetone/chcl3 50/50) of under 1000 µg/mL and a solubility (physchem; acn) of under 1000 µg/mL. For the same compound, the solubility (physchem; acn/chcl3 50/50) was under 1000 µg/mL, the solubility (physchem; acn/etoac 50/50) was under 1000 µg/mL and the solubility (physchem; chloroform) was under 1000 µg/mL. It also gave a solubility (physchem; dce) of under 1000 µg/mL, a solubility (physchem; dioxane) of under 1000 µg/mL and a solubility (physchem; dmf/acn 30/70) of under 1000 µg/mL. The solubility (physchem; dmf/etoac 50/50) was under 1000 µg/mL, the solubility (physchem; dmso/mtbe 10/90) was under 1000 µg/mL and the solubility (physchem; etoac) was under 1000 µg/mL. For the same compound, the solubility (physchem; etoh) was under 1000 µg/mL, the solubility (physchem; etoh/dcm 50/50) was under 1000 µg/mL and the solubility (physchem; heptane/chcl3 30/70) was under 1000 µg/mL. The solubility (physchem; thf) was under 1000 µg/mL, the solubility (physchem; thf/chcl3 25/75) was under 1000 µg/mL and the solubility (physchem; thf/chcl3 85/15) was under 1000 µg/mL. The solubility (physchem; toluene) was under 1000 µg/mL, the “Solubility Estimate (a)” value ([1]; ACN/H2O 50/50) was 36000 µg/mL (≈ 73.5 mM) and the “Solubility Estimate (a)” value ([1]; Acetone/H2O 30/70) was 14000 µg/mL (≈ 28.6 mM). For the same compound, the “Solubility Estimate (a)” value ([1]; DMA) was 8000 µg/mL (≈ 16.3 mM), the “Solubility Estimate (a)” value ([1]; DMF/ACN 60/40) was 3000 µg/mL (≈ 6.13 mM) and the “Solubility Estimate (a)” value ([1]; DMF/H2O 30/70) was 17000 µg/mL (≈ 34.7 mM). The “Solubility Estimate (a)” value ([1]; DMF/H2O 50/50) was 24000 µg/mL (≈ 49 mM), the “Solubility Estimate (a)” value ([1]; DMF/IPA 60/40) was 5000 µg/mL (≈ 10.2 mM) and the “Solubility Estimate (a)” value ([1]; DMF/MIBK 80/20) was 4000 µg/mL (≈ 8.17 mM). For the same compound, the “Solubility Estimate (a)” value ([1]; DMF) was 18000 µg/mL (≈ 36.8 mM), the “Solubility Estimate (a)” value ([1]; DMSO) was 63000 µg/mL (≈ 129 mM) and the “Solubility Estimate (a)” value ([1]; Dioxane/H2O 50/50, non-cGMP sample) was 19000 µg/mL (≈ 38.8 mM). The “Solubility Estimate (a)” value ([1]; EtOH/H2O 40/60) was 10000 µg/mL (≈ 20.4 mM), the “Solubility Estimate (a)” value ([1]; Ethylene Glycol) was 7000 µg/mL (≈ 14.3 mM) and the “Solubility Estimate (a)” value ([1]; IPA/H2O 50/50) was 15000 µg/mL (≈ 30.6 mM). For the same compound, the “Solubility Estimate (a)” value ([1]; MEK/DMF 40/60, non-cGMP sample) was 2000 µg/mL (≈ 4.08 mM), the “Solubility Estimate (a)” value ([1]; MeOH/Acetone 50/50) was 6000 µg/mL (≈ 12.3 mM) and the “Solubility Estimate (a)” value ([1]; MeOH/CHCl3 50/50) was 13000 µg/mL (≈ 26.5 mM). For the same compound, the “Solubility Estimate (a)” value ([1]; MeOH/EtOAc 50/50) was 2000 µg/mL (≈ 4.08 mM), the “Solubility Estimate (a)” value ([1]; MeOH/H2O 20/80) was 9000 µg/mL (≈ 18.4 mM) and the “Solubility Estimate (a)” value ([1]; MeOH) was 19000 µg/mL (≈ 38.8 mM). For the same compound, the “Solubility Estimate (a)” value ([1]; NMP/Acetone 85/15) was 7000 µg/mL (≈ 14.3 mM), the “Solubility Estimate (a)” value ([1]; NMP/EtOAc 57/43) was 1000 µg/mL (≈ 2.04 mM) and the “Solubility Estimate (a)” value ([1]; NMP) was 10000 µg/mL (≈ 20.4 mM). The “Solubility Estimate (a)” value ([1]; PG, non-cGMP sample) was 2000 µg/mL (≈ 4.08 mM), the “Solubility Estimate (a)” value ([1]; TFE (anhydrous)) was 10000 µg/mL (≈ 20.4 mM) and the “Solubility Estimate (a)” value ([1]; TFE/MEK 70/30) was 2000 µg/mL (≈ 4.08 mM). For the same compound, the “Solubility Estimate (a)” value ([1]; THF/CHCl3 50/50) was 1000 µg/mL (≈ 2.04 mM), the “Solubility Estimate (a)” value ([1]; THF/H2O 80/20) was 24000 µg/mL (≈ 49 mM) and the “Solubility Estimate (a)” value ([1]; THF/H2O 90/10) was 4000 µg/mL (≈ 8.17 mM).

From patent EP4722197A1, “SOLID STATE FORMS OF (S)-2-(((S)-6,8-IFLUORO-1,2,3,4-TETRAHYDRONAPHTHALEN-2-YL)AMINO)-N-(1-(2-METHYL-1-(NEOPENTYLAMINO)PROPAN-2-YL)-1H-IMIDAZOL-4-YL)PENTANAMIDE AND USES THEREOF” (Pfizer Inc., priority 2019, dated 2021)
